We go through 50 sequences from the supplement of paper PMC12645437, “Orthogonal IMiD-Degron Pairs Induce Selective Protein Degradation in Cells” (ACS Chemical Biology, 2025).

The other results are listed elsewhere or left out.
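Further: jurkat cells carrying a lentiviral library of mutant zinc finger degrons fused to EGFP plus mCherry, mCherry+ cells FACS sorted, degron abundance counted by next-generation sequencing.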

The assay addresses no compound (DMSO). Briefly: log2 fold change of degron read counts, EGFP-low vs EGFP+ sorted cells; higher = lower degron-EGFP level without compound (poor expression or instability). The settings on record: compound: DMSO control; 18 h.
Take FLCDVCGAMFTQKGNLLRHIKL: the “log2 fold change of degron read counts” value was -0.656. As for FGCEVCGAYFTQKGNLLRHIKL, the “log2 fold change of degron read counts” value is -0.441. The same measure for LCCNQCGFACTQKGNLLRHIKL: 0.752; for FMCEQCGAFFTQKGNLLRHIKL: -1.16. The same measure for FTCEVCGAMFTQKGNLLRHIKL: -1.36; for FHCEQCGARFTQKGNLLRHIKL: -0.881; for FMCDQCGATFTQKGNLLRHIKL: -1.47. For the sequence FFCEICGRKFTQKGNLLRHIKL, the “log2 fold change of degron read counts” value was -0.712.

Regarding FVCEVCGAKFTQKGNLLRHIKL, the “log2 fold change of degron read counts” value is -2.84. The same measure for FRCNQCGRRFTQKGNLLRHIKL: -0.434. In the case of FACEQCGAAFTQKGNLLRHIKL, the “log2 fold change of degron read counts” value was -1.7. Take FCCEICGRYFTQKGNLLRHIKL: the “log2 fold change of degron read counts” value was -0.334.

For FICPICGREFTQKGNLLRHIKL, the “log2 fold change of degron read counts” value was -0.548. The same measure for FVCEICGHYFTQKGNLLRHIKL: -1.22; for FTCPICGAHFTQKGNLLRHIKL: -0.356; for FQCNQCGREFTQKGNLLRHIKL: -1.65.

For FGCNQCGRFFTQKGNLLRHIKL, the “log2 fold change of degron read counts” value worked out at 1.02. The same measure for FWCNVCGAEFTQKGNLLRHIKL: -0.829; for FSCNQCGHQFTQKGNLLRHIKL: -0.157. Take FCCNVCGADFTQKGNLLRHIKL: the “log2 fold change of degron read counts” value was -1.03.

For the sequence FLCEICGHQFTQKGNLLRHIKL, the “log2 fold change of degron read counts” value was -2.36. The same measure for FDCDQCGAFFTQKGNLLRHIKL: 0.156; for FHCEICGRYFTQKGNLLRHIKL: -0.769; for FMCEICGAWFTQKGNLLRHIKL: -0.612. Then FMCNVCGANFTQKGNLLRHIKL, with -1.49; and LDCNQCGFHCTQKGNLLRHIKL, with 0.158; and FNCPICGRWFTQKGNLLRHIKL, with 0.756. The same measure for FICDVCGADFTQKGNLLRHIKL: -2.89; for FICDICGAWFTQKGNLLRHIKL: -0.549.

As for FGCNICGAIFTQKGNLLRHIKL, the “log2 fold change of degron read counts” value turned out to be 0.509.

Regarding FSCDICGAHFTQKGNLLRHIKL, the “log2 fold change of degron read counts” value is -1.26. Then FVCPQCGALFTQKGNLLRHIKL, with -0.248; and FMCPICGRNFTQKGNLLRHIKL, with -0.324; and LVCPICGFDCTQKGNLLRHIKL, with 0.764. The same measure for FSCEICGHGFTQKGNLLRHIKL: -0.794. As to FGCSVCGHKFTQKGNLLRHIKL, the “log2 fold change of degron read counts” value is 0.197. The same measure for FWCPICGAMFTQKGNLLRHIKL: 1.11. The same measure for FLCDQCGAMFTQKGNLLRHIKL: -1.8. Then LECNQCGFSCTQKGNLLRHIKL, with -0.315; and FECPICGACFTQKGNLLRHIKL, with -0.884; and FQCPICGHSFTQKGNLLRHIKL, with -0.4. With FDCEVCGACFTQKGNLLRHIKL, the “log2 fold change of degron read counts” value is -1.37. The same measure for FDCNICGASFTQKGNLLRHIKL: -1.52; for FHCEICGHNFTQKGNLLRHIKL: -1.67. Regarding FMCEQCGADFTQKGNLLRHIKL, the “log2 fold change of degron read counts” value was -2.69. Then LWCPICGFKCTQKGNLLRHIKL, with 1.76; and FLCNICGAVFTQKGNLLRHIKL, with -0.153. On to FSCDVCGAVFTQKGNLLRHIKL, for which the “log2 fold change of degron read counts” value is -1.54. Regarding FCCEQCGADFTQKGNLLRHIKL, the “log2 fold change of degron read counts” value is -2.46. Then FTCNQCGRIFTQKGNLLRHIKL, with -0.132.
